# Reference: article PMC10726135
# The other results are listed elsewhere or left out. At the low end of the ranking, values are background and their order means little. Measured with an extract: partners may take part in the binding.
# Target: T1, HNF4alpha8 (COS-7 nuclear extract) (UniProt P41235-5)
# T1 sequence: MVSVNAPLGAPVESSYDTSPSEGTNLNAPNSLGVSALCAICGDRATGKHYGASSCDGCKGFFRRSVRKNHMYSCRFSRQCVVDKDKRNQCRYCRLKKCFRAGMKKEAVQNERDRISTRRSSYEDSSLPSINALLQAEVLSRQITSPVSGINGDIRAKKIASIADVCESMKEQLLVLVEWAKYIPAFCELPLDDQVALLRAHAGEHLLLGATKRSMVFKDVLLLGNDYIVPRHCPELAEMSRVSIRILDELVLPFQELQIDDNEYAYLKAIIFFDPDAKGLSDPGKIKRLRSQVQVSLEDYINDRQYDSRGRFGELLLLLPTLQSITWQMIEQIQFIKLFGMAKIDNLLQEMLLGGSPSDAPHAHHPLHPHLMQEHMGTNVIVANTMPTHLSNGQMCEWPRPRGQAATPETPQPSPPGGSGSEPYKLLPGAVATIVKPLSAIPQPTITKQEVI
# Experiment: protein-binding microarray
# Settings: COS-7 nuclear extract on double-stranded Agilent 4x180k PBM; binding buffer, salt, pH and temperature not given; high values mean tight binding; double strand, one strand shown; sequences stand for … in …GCCTAGGGAGATTAGAGTATCGGTCGA
row,Sequence,binding signal (log2 normalized intensity)
1,CCAAAGAGAAGCCTAAGCAGGGCTAGACTT,-1.27
2,CAATGAGAAACCTCAAAGGTTAGGGGGATT,-1.37
3,AAAACAGCCCTAACCAGGGGTGGGGACCTT,-0.829
4,CAGAGGAGGCACTTGTCTCACATCTGATAG,-1.27
5,ACAGCTTTGGGCATACAAAACAACCACTCT,-1.32
6,TAAGAGGCATGAGGTTCTTGTAAGGTTCTT,0.798
7,TAGCCTAAACTATCTGGTGCGGTCCAAGAC,-1.23
8,CGAGGAGGCTGAGGCAGGATGACTGCTTGA,-1.38
9,GTCAGGACCTTTCTTTATGGACCTTGTCCC,6.86
10,TTAATGGAAATGCCTAGGATACCTAGTAGG,-1.24
11,AGATCAGTAGCTAGGAGACAACTTAGAATT,-1.43
12,GTGTTTACTGGGGGCCACCATATGTATGTG,0.624
13,ACAAGTATACCTGTACACTTACAAGTGTAC,1.03
14,ATTCCTAGATATCAGGAAGGTCAGAAAGCA,0.466
15,GAGCCCTCTGATCTGACCCCTTCTTGACCT,5.04
16,AGTATTACCATGTCCTGTGATTAAGGTCAA,2.96
17,TCTCTCTTTTTCTGAGCCTGGGTCACCCCT,2.05
18,CCAACAGAGTCATCACAATAGGGAAACAGC,-1.31
19,CCGAGGAACCCAGACTGCATTTTCATCTTG,-1.27
20,CCTCCTAATCACTGCCCTTTGGTGCCTCTT,2.6

row,Sequence,binding signal (log2 normalized intensity)
1,TCCCTAAGTACACACTGTACCCGTCCACCT,1.32
2,CACAAGGATCCCATTCATGTGGGTCAACAG,1.53
3,CAAGATCCTAGTCTTTAGAGTAACCATTCT,-0.512
4,GCATCTGTTGCTCAAGGAGGCCCAAAGGAA,0.255
5,AAAAGATTAAGTTATCCATGGAGTGTGAAA,0.594
6,ATCAATAAAAGGTCCAGAGTTCACTGCAGG,4.13
7,TGAAGGGGGCGGGGGCGAAAGGGAGGGGGC,-1.42
8,TTCAAAGCCAGGACTTTCAGGAATGCACCC,1.23
9,CAGGATGTTTTCTCTAGCGCTTATCAGATG,-0.865
10,ACCTGAACTTTGCTCTGTGACACAAAGAAG,3.72
11,AAAAAAAAAAATTACTGACCCTTGCACTGT,5.45
12,CGGGGTCAGGCCGTGGTGTATGATGACGCC,0.449
13,ATTCCTATCGGTCACCATAAAACATTCTAT,-0.695
14,ACTGCAATAAAGTGGGTTGAAGTTCTCCCT,-0.0108
15,AGGTCTACCAGGAATATTGCCCCCTAATGG,3.82
16,CCTTTCAAGGGCTTACAACTCTAAGGGGGA,-1.41
17,TGACCATCCCAAAGCTTTTTGATTGCTTAT,0.101
18,AACATGGACTTTGTTGTTTGCCTCTGAAAA,2.8
19,TTGCTCTGCATGGATTAGCCAGCTATGATA,-1.06
20,CACAAATACTATTCATCCTCCAAAACCCAG,0.83
